Experimental data published in the supplement of paper PMC3334620.
In all, about 33,000 sequences were measured (“E-score (-0.5 to 0.5)”: median about -0.035, highest 2% from about 0.34 on). The list shows a part of the results.

These sequences were tested against T1, Mot3 (UniProt P54785) (assay: PBM E-score (8-mer binding enrichment) (E-score (-0.5 to 0.5)); higher = stronger / more preferred TF binding; most listed sequences are background and not binding sites). Conditions: protein concentration: 200 nM; construct: GST-full length.
T1 sequence: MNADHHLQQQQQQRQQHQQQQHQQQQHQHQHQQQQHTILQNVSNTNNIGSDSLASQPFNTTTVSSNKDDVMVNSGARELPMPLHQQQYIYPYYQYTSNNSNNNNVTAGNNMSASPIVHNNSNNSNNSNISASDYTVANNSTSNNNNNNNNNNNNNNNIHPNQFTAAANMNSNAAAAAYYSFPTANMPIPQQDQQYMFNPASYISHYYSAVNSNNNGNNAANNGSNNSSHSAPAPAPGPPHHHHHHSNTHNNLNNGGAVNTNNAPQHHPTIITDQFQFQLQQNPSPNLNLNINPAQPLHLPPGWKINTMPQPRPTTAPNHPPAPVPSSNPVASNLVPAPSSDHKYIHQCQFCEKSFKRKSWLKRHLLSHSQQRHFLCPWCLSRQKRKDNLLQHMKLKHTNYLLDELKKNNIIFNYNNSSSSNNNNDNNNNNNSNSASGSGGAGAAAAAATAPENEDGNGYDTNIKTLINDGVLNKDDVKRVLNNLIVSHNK
Summary of the method: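 GST-tagged yeast TFs (full-length or DNA-binding domain) were made by PURExpress in vitro transcription/translation and applied at about 100-200 nM to universal all-10-mer Agilent arrays. The arrays were made double-stranded by primer extension, on fresh or once-stripped slides. Bound protein was detected with fluorescent anti-GST, and scans were normalised with masliner. Each ungapped eight-base word, pooled with its reverse complement, received an E-score (modified Wilcoxon-Mann-Whitney statistic) from the Universal PBM Analysis Suite.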

Sequence | PBM E-score
GAACGTCC | -0.118
CCTAGCAG | -0.203
CTACGCAA | 0.278
AGTCTTAT | -0.0765
AGTTTACG | 0.188
GTTGGTTA | 0.103
AAATGAAC | 0.176
CGCGGTCC | -0.263
CATGCTTC | 0.0382
CAGCTACG | -0.0695
GTCATTAA | 0.0517
GACAGATA | 0.0793
CCCGCAGC | -0.378
CTATCTGC | -0.229
GGGAAATA | 0.0874
GCCACGTA | 0.059
GATCGCAA | -0.129
GGCAGTTA | -0.136
CAACGGCA | 0.00468
ACTACTTA | 0.117
TCCCGGGA | -0.379
CCTCGGCA | -0.11
ACAACAAA | 0.206
CTCTGGAA | -0.124

Sequence | PBM E-score
CAGACGAA | 0.0663
CGCTTCGA | -0.15
GGCCAGAA | 0.0414
AAACCGCG | -0.0689
CGAGCAAA | -0.173
CCGAGATA | -0.175
CCACACAC | 0.00618
AGAAATCA | 0.0235
CCCCTAGA | -0.252
ATGGAAAT | 0.0932
GGGATACA | 0.0538
GGCAGCGA | -0.149
ACCGAGGC | -0.23
GACGGTCA | -0.246
GGTCTCGA | -0.0431
CTCCGGAC | -0.185
AACGCGCG | 0.254
CACTGGAC | -0.0976
GCGCCTGA | 0.156
ATAGGGAT | 0.0533
AAGCACCG | -0.206
CTTGCTTC | 0.0817
AGTTCATA | -0.111
GTCACAAC | 0.0362

Sequence | PBM E-score
GCGAGGAC | -0.378
CGACGGAA | -0.241
ACGCTGAA | 0.0802
GGGCTTTA | -0.151
CACTTGTC | -0.264
AGTCCCGA | -0.214
CTCGCTGC | -0.194
CTAGCCGA | -0.191
TAACTCCA | -0.179
GCGCCTCC | -0.164
GTCCAACA | 0.153
CTTATGGC | -0.22
AAGACCGT | -0.0748
AACGTCAT | -0.014
AGTTAGGC | 0.105
ACGTCCGG | -0.0368
AGCATCAA | 0.0635
GACCCGGC | -0.348
GCGGCACA | -0.246
AAGCGAGA | -0.272
ACCTCGGA | -0.144
TCTACAGA | 0.0845
AGCAAACG | -0.232
ATGAGCGA | -0.252

Sequence | PBM E-score
GTTTAGCA | -0.0722
ATTTAACC | 0.0628
CACGTTGA | 0.169
GGTTCGGA | -0.201
CTGGCACA | -0.11
ATTTTCGC | 0.0218
ACCTAAGG | -0.0194
ATGGGATG | -0.0284
GCCAGGCC | -0.25
AACTCAAC | 0.0846
GTCATCAA | 0.0831
GCGTAGTA | 0.194
AATAGCAC | -0.299
CAAATGAC | 0.058
CATCTGCG | 0.0948
CCCTCTCC | -0.166
ATATGTGA | 0.197
CCGACAAG | -0.0369
CCAGTGGA | -0.155
CGTTTTGA | 0.0842
AGTTGAAA | 0.0214
CCAAGAGA | -0.0138
